Source: the supplement of paper PMC3334620
Whole data set: some 33,000 sequences, median “E-score (-0.5 to 0.5)” near -0.043, cut for the highest 2% near 0.37. This is one part of the list.

Each sequence was assayed against T1, Upc2 (UniProt Q12151) (assay: PBM E-score (8-mer binding enrichment) (E-score (-0.5 to 0.5)); higher = stronger / more preferred TF binding; most listed sequences are background and not binding sites). Details: protein concentration: 200 nM; construct: GST-full length.
T1 sequence: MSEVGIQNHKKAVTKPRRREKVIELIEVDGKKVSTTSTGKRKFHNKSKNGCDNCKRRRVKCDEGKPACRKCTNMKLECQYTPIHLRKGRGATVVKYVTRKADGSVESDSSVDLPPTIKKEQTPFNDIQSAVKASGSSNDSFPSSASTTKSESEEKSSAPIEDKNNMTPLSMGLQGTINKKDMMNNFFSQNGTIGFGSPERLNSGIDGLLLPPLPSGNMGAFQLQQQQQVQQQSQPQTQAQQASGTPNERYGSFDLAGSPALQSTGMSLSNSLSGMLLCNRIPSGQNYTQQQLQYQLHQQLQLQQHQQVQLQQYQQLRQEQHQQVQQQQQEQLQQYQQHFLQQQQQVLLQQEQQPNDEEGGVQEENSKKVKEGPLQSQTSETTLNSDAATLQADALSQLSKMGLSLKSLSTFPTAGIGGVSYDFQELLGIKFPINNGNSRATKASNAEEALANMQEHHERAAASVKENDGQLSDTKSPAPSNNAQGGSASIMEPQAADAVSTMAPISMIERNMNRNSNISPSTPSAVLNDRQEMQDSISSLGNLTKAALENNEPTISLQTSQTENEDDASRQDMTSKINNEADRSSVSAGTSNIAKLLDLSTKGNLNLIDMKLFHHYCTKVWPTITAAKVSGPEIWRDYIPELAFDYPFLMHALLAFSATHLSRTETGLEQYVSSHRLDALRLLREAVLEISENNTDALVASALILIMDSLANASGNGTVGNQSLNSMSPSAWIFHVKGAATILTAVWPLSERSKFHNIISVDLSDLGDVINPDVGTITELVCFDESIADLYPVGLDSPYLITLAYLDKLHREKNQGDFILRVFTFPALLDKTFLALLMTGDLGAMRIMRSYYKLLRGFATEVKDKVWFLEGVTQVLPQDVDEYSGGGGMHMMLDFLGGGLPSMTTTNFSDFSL
Experimental: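 Universal 'all 10-mer' protein binding microarrays (Agilent AMADID 015681) probed with GST-tagged S. cerevisiae TFs (full-length or DBD) made by in vitro transcription/translation (PURExpress), about 100-200 nM. Bound TF was detected with fluorescent anti-GST. Each ungapped 8-mer (which stands for itself and its reverse complement) is scored by the PBM enrichment score (E-score), a modified Wilcoxon-Mann-Whitney statistic from -0.5 to +0.5, computed with the Universal PBM Analysis Suite. Scale: above 0.35 generally sequence-specific binding.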

Sequence | PBM E-score
AAGAATCA | -0.103
GCGTGTCC | -0.0381
ACACATGT | 0.058
CATTCAGA | -0.287
ATCCGCTA | 0.0682
ACTACTTG | -0.241
ATTTCTAC | 0.181
GCACGTGA | -0.0226
AACTTAAC | 0.191
GAAGCACA | -0.111
CAATCCCG | -0.116
ATACCGTG | -0.0415
CCCCGGGG | 0.0309
GCACTCAA | -0.142
ACCCCGGA | -0.106
TGTACACA | 0.0892
ATTAAGAC | 0.0381
CCTGATTC | -0.124
ATATCACG | -0.114
CGCATAAA | 0.191
AAAGGATT | -0.226
CAACCACA | -0.0947
CTGACAAA | -0.0299
AAAAGGCA | -0.0264
AAAGTGCT | -0.224

Sequence | PBM E-score
AGCACCGA | 0.0328
ATACTGGA | 0.0354
AACGTACT | 0.196
TCCAATAA | -0.0391
AAGGCAAT | -0.0265
ATAGCCTG | -0.148
AAGCCCAG | -0.198
GGTGTTGA | -0.212
CGCCCCGC | 0.0186
ACATAGAC | -0.0261
ACACATCC | -0.037
GACTGCAA | -0.294
AAAACCTC | -0.0808
CGCCCTGC | -0.0784
GAGGGAGA | -0.16
ATTAAGCA | -0.137
CAGTGCTC | -0.0113
TCGGTGAA | 0.129
AAGCTTAC | 0.0517
TAACATGA | -0.128
AGCCTACG | 0.0978
CATTGGAC | -0.169
CGTAAATC | 0.352
CGAGGTTA | 0.0876
CCTTTTTA | 0.0606

Sequence | PBM E-score
TGAGGCCA | -0.00759
ACTGTGCA | -0.00243
CGGGGTGA | -0.0566
AGCGAGGC | 0.296
AAGCGTAC | 0.245
ATAGGATG | 0.102
AATCTATA | 0.171
GCGAGTTA | 0.116
CAGCTTCG | 0.0472
GACTTCGA | -0.111
CGCAACCG | 0.182
GATTTAGA | -0.0125
CACGTACA | 0.272
AGTCCGCC | -0.164
ATAGTAAG | 0.0249
GCTCAGGA | 0.0183
AAAGTGTT | 0.0836
ACGAAGTA | 0.345
CGTTTTAG | 0.134
GGACCACA | -0.0517
AGGTTCCA | -0.264
AATGCGGT | -0.165
CCTCCAGA | -0.249
AGGCAGAT | -0.223
ACTCGGGG | -0.212

Sequence | PBM E-score
GGACTGTA | -0.147
ACATCGCT | -0.0124
CGGCAAAC | 0.193
AAGAGAAG | -0.0211
AGCGTTGC | -0.0771
TAATCGCA | 0.173
AGTCAGAG | -0.252
CAACGGCG | -0.102
AGTGTTGC | -0.0649
GGAGTCCA | -0.125
TAATTAAA | 0.0197
ATCATTGG | -0.123
CATCCCTC | -0.182
TAAATGCA | 0.0283
CAAGTGAA | -0.0871
TGAACGAA | 0.458
ATACACCC | -0.0137
ACTCACCC | -0.256
ACTCCGCC | -0.347
TAGAACGA | 0.383
AATATGTA | -0.0108
AGGTTCGC | 0.0522
ACGACAGG | 0.359
ATACCCCC | -0.141
CGGGAAAC | 0.196

Sequence | PBM E-score
AGGCTCAG | -0.182
CCTAGGTA | -0.196
GGCGGAAA | -0.0651
CCCAGACG | -0.0246
ACTCTGAG | -0.171
CGGTCGTC | 0.0119
ACCATGGT | 0.0532
CCCCTTTA | -0.129
CCCCCACC | -0.264
ATACTCTC | 0.0884
CACGGGAA | -0.159
GAGAACCA | -0.0565
ACAGCCAC | -0.272
CACCCTGG | -0.21
CCTCATGC | -0.315
AGGGCACT | -0.15
ATCTCTTG | -0.3
CTCCCATA | -0.167
GCTACGCC | -0.18
GAGGGAAA | -0.13
ATTGCAGA | -0.073
CCGTAACC | 0.194
AGAGGAGC | -0.0687
AACAGTTA | -0.135
CCGCGAAC | 0.0928

Sequence | PBM E-score
ACGCGCCG | 0.159
AATCCATG | -0.252
AAATTCAT | -0.122
ATCGTCCG | -0.101
ACTTCATG | -0.14
CACCCGTA | 0.254
ACCCCTAC | -0.221
AATAGGTG | -0.0824
CTTGGACA | -0.134
AGCCCTAT | -0.174
CTTACACC | 0.0562
AAAAACAT | 0.0671
GACCAAAC | 0.0844
TAGTCCGA | 0.0309
GCTCAGCA | 0.0843
AAGTATTA | -0.141
ACACCCGC | -0.113
CCTGAGGA | -0.0922
CAAGTGGA | -0.308
AAACTTTA | -0.0184
AGCCGGAT | -0.119
AATCTGGT | -0.093
CACAACAA | 0.0905
CGTACTAC | 0.327
GAAACTTA | 0.0588

Sequence | PBM E-score
CGTAGAAA | 0.282
AGTTTTTA | 0.192
AGGAAGCA | -0.101
AGATTCAT | -0.263
CAGTCGCC | -0.196
TGAACCCA | -0.0696
GCTTCGAC | -0.201
ACGTAGGG | -0.147
ATAGGCTG | -0.0822
AGTCAGGG | -0.253
AGCCTTGC | -0.0435
ACTATGTC | -0.106
CCAAATGG | -0.176
CGGTTCGC | 0.0718
AAGGCGTA | 0.097
CGAGCAGC | 0.0843
GAGGATCA | -0.228
GTGGTTGA | -0.0855
AGATGGAA | -0.117
AATTTAGT | 0.00405
TGCGGCCA | -0.216
GCCCCTTA | 0.0748
